# Test results taken from PubChem BioAssay AID743255 (National Center for Advancing Translational Sciences (NCATS), 2014).
# About 910 (0.23%) of roughly 390,000 compounds were called active. Inconclusive results (about 5%) are left out. The call rests on the fitted dose curve; in most records, active means well fitted inhibition curve with a large enough effect; inconclusive means small, poorly fitted or top-dose-only effect; inactive means no such curve, though single readings can be large or run the other way. This is a selection; strong and weak results do not stand in their true shares.
# Target: Ubiquitin carboxyl-terminal hydrolase 1 (Homo sapiens) (UniProt O94782)
# Test: Inhibitors of USP1/UAF1: Primary Screen; further: nearly all actives have a fitted effect of over 60% in size
# Details: recombinant USP1/UAF1, Ub-Rhodamine cleavage fluorescence; activity change, negative = inhibition: at 57.1 µM (top of the series)
# Procedure, shortened: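 1 nM enzyme complex + cpd, 15 min RT; start with Ub-Rho 150nM final; kinetic fluorescence ex 480/em 540, 6 reads q60 s. Buffer 50mM HEPES pH 7.8, 0.5mM EDTA, 0.1 mg/ml BSA, 1mM TCEP, 0.01% Tween-20.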
# On the % scale 0 is the no-effect control and ±100 the full control effect; potency means the concentration at half of the fitted maximal effect.
# Chain of UniProt O94782 (O94782 whole entry, looked up): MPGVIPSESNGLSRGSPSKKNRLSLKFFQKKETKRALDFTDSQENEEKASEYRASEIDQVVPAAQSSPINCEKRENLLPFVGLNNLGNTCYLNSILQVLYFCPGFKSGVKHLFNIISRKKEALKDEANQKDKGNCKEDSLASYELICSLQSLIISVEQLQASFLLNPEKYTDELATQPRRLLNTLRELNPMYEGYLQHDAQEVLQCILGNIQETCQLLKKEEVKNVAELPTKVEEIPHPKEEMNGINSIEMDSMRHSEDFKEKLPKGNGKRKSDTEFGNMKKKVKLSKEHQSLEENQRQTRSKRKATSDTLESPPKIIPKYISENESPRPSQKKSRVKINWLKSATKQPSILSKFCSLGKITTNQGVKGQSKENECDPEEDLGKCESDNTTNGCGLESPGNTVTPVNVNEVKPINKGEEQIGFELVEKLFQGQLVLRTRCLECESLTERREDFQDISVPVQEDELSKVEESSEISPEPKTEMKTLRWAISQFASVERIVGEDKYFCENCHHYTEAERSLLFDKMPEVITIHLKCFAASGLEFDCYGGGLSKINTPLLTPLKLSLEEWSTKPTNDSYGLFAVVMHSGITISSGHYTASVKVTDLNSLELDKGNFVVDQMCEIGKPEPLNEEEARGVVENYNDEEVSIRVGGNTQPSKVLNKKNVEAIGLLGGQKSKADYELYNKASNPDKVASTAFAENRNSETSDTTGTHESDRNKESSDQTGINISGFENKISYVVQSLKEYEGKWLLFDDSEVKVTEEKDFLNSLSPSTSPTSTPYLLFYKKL
Compound,"activity change, negative = inhibition",Potency
COCCCNC(=O)c1cc2c(-c3cccc(OC)c3)nn(C)c2s1,inactive: -18.3%,–
CCC1CN(C(=O)N2CCC(C(=O)NCc3ccccc3C)CC2)c2ccccc2O1 (centres undefined),inactive: -32.1%,–
CCN1C(=O)/C(=C/C=C2\N(CC)c3cc(S(=O)(=O)N(C)C)ccc3N2c2ccccc2)SC1=S,inactive: 41%,–
CNC(=O)c1c[nH]c2ccc(S(=O)(=O)Nc3cccc(Cl)c3C)cc2c1=O,inactive: 32.3%,–
Cc1ccc(NC(=O)c2ccc(NCCc3ccccc3)c([N+](=O)[O-])c2)cc1F,inactive: 33.7%,–
CCCCCCCCc1nnc(NC(=O)c2ccco2)s1,inactive: 29.3%,–
OCC[C@H]1C[C@H](O)[C@@H](O)[C@]2(CCCc3ccccc3O2)O1,inactive: -9.44%,–
O=C1Cc2ccccc2Sc2ccc(O)cc21,inactive: 106%,–
COC(=O)c1ccc(Cn2nnc3c(=O)[nH]c(C4CCCN(S(=O)(=O)c5cccc(Cl)c5)C4)nc32)cc1 (centres undefined),inactive: -6.59%,–
COc1ccc(NC(=O)Nc2ccc3c(c2)C(=O)N([C@@H](C)CO)C[C@@H](C)[C@@H](CN(C)S(=O)(=O)c2cccs2)O3)cc1,inactive: -20.8%,–
C[C@@H]1COC(=O)[C@H](CC(=O)OC(C)(C)C)C/C=C\C[C@H](CC(=O)N(CCO)Cc2ccccc2)C(=O)N1,inactive: -5.06%,–
CCN1C(=O)/C(=C2/Sc3ccccc3N2CC)S/C1=N\c1ncn[nH]1,inactive: 142%,–
CC(C)n1c(O)c(N=Nc2ccc(Cl)nn2)c2ccccc21,inactive: 49.3%,–
Cc1cccc(NC(=O)c2cc(S(=O)(=O)N3CCC4(CC3)OCCO4)ccc2F)c1,inactive: 1.31%,–
C[C@]12C(=O)N(c3cccc(F)c3)C(=O)N1[C@H]1c3ccccc3OC[C@@H]1[C@H]2c1ccccc1,inactive: -28.4%,–
CC(=O)n1cc([C@H]2C=C(C(=O)NCc3ccccc3)O[C@@H](OCc3ccc(CO)cc3)C2)c2ccccc21,inactive: -24.8%,–
COc1cccc(CNC(=O)CCNS(=O)(=O)c2ccc3c(c2)oc(=O)n3C)c1,inactive: 9.54%,–
CCOC(=O)c1[nH]cnc1C(=O)Nc1ccc(F)cc1,inactive: -7.17%,–
O=C(O)CCCN1C(=O)/C(=C/c2ccc(-c3nc4ccccc4s3)o2)SC1=S,inactive: -21.8%,–
CCC1CN(C(=O)N2CCC(C(=O)O)CC2)c2cc(C)ccc2O1 (centres undefined),inactive: 28.2%,–
CCOC(=O)C1CCCN(C(=O)Cn2ncc3c([nH]c4ccc(C)cc43)c2=O)C1 (centres undefined),inactive: -2.69%,–

Compound,"activity change, negative = inhibition",Potency
COC(C[C@H]1O[C@@H]1C(=O)[C@H](C)OCc1ccccc1)OC,inactive: 3.95%,–
C[C@@H]1CN([C@@H](C)CO)C(=O)CCCn2nncc2CO[C@H]1CN(C)C(=O)NC1CCCCC1,inactive: -20.8%,–
COc1ccc([C@H]2C[C@@H](O)[C@H](n3cc(COC(=O)c4ccccc4)nn3)CN2C(=O)C2CCCCC2)cc1,inactive: -24.9%,–
CN1C(=O)/C(=C\c2cc(N=Nc3ccccc3)ccc2O)SC1=S,inactive: -9.27%,–
CC(C)(C)OC(=O)C[C@H]1C/C=C\C[C@H](CC(=O)N[C@H](CO)Cc2ccccc2)C(=O)N2CCC[C@@H]2COC1=O,inactive: -17.9%,–
Cc1ccc(NC(=O)C2CC(=O)N(c3ccc(OC(C)C)cc3)C2)cc1 (centres undefined),inactive: 27.2%,–
COC(=O)N1C(=O)[C@@](c2ccccc2)(C2CCCCC2)N1C(=O)OC,inactive: -9.12%,–
CCc1ccccc1N(C)C(=O)c1ccc2c(=O)n3c(nc2c1)CCCCC3,inactive: 38.3%,–
CC(C)(C)OC(=O)C[C@H]1C/C=C\C[C@@H](CC(=O)N[C@@H](CO)Cc2ccccc2)C(=O)NC[C@@H](c2ccccc2)OC1=O,inactive: -22.3%,–
O=C1c2ccccc2-c2onc3ccc(N4CCCC4)c1c23,–,active: 14.1 µM
COc1cc(N=c2ssnc2Cl)c(OC)cc1Cl,inactive: -11.6%,–
O=C(Nc1cc(F)cc(F)c1)c1ccc(NCCc2ccccc2)c([N+](=O)[O-])c1,inactive: 41.5%,–
CCOC(=O)[C@@H]1[C@H]2COc3ccc(Br)cc3[C@H]2N2C(=O)N(c3ccc(C)cc3)C(=O)[C@@]12C,inactive: -25.8%,–
CCOC(=O)C1CCN(C(=O)Cn2ncc3c([nH]c4ccccc43)c2=O)CC1,inactive: -14.2%,–
COC(=O)N(C)C[C@@H]1OCc2cnnn2CCCC(=O)N([C@H](C)CO)C[C@H]1C,inactive: -16.7%,–
C[C@H]1CN([C@@H](C)CO)C(=O)CCCn2nncc2CO[C@@H]1CN(C)Cc1ccc(C(=O)O)cc1,inactive: -12.8%,–
COc1ccccc1N(CC(=O)NCCSCc1ccc(Cl)cc1)S(C)(=O)=O,inactive: 5.48%,–
COc1ccc(S(=O)(=O)Nc2ccc3c(c2)OCO3)cc1C(=O)O,inactive: 27.1%,–
CC[C@]12CCCN3CCc4c(n(c5ccccc45)[C@](O)(C(=O)OC)C1)[C@@H]32,inactive: -20.2%,–
CC(C)NC[C@@H](O)COc1cccc2ccccc12,inactive: 11.3%,–
COc1ccc(NC(=O)N(C)C[C@H]2Oc3ccc(NC(=O)CCN4CCOCC4)cc3C(=O)N([C@@H](C)CO)C[C@H]2C)cc1,–,active: 5.01 µM

Compound,"activity change, negative = inhibition",Potency
COC(=O)c1ccccc1NC1=C/C(=N\S(=O)(=O)c2ccc(C(=O)O)cc2)c2ccccc2C1=O,–,active: 12.6 µM
OCC[C@@H]1C[C@@H](O)[C@H](O)[C@]2(CCCO2)O1,inactive: -24.7%,–
CC(=O)N1N=C(c2ccccc2)OC1c1ccc([N+](=O)[O-])s1 (centres undefined),–,active: 25.1 µM
O=C(NN=c1c(=O)c2ccccc2c1=O)c1ccccc1,–,active: 31.6 µM
CC(=O)[C@]1(O)Cc2c(O)c3c(c(O)c2[C@@H](O[C@H]2C[C@H](N)[C@H](O)[C@H](C)O2)C1)C(=O)c1ccccc1C3=O,–,active: 28.2 µM
C[C@@H]1CN([C@@H](C)CO)C(=O)CCCn2nncc2CO[C@@H]1CN(C)S(=O)(=O)c1ccccc1C#N,inactive: -17%,–
Nc1c(C(=O)NC23CC4CC(CC(C4)C2)C3)sc2nc3c(c(C(F)(F)F)c12)CCC3,inactive: 32.3%,–
Cc1ccc(-c2nc(NC(=O)CSc3ccc4ccccc4n3)ns2)cc1,inactive: -19.1%,–
Cc1c(N=C2C=CC(=O)c3ccccc32)c(=O)n(-c2ccccc2)n1C,–,active: 31.6 µM
C[C@H]1CN([C@@H](C)CO)C(=O)CCCn2nncc2CO[C@H]1CN(C)C(=O)c1ccc(N2CCN(C)CC2)cc1,inactive: -17.9%,–
CC(=O)N1C(=O)C(=C2C=C(C)OC(C)=C2)c2ccccc21,inactive: 153%,–
CC(C)(C)OC(=O)N[C@H](C(=O)OC(C)(C)C)c1ccc(Br)cc1,inactive: -24.4%,–
C[C@@H]1CN([C@H](C)CO)C(=O)CCCn2nncc2CO[C@@H]1CN(C)S(=O)(=O)c1ccc2c(c1)OCCCO2,inactive: -19.5%,–
COc1ccc(NS(=O)(=O)c2ccc3c(c2)[C@H]2C=CC[C@H]2[C@@H](c2ccc(C(=O)O)cc2)N3)cc1,inactive: -27%,–
O=C1C=C(NCc2ccccc2)c2ccccc2C1=O,–,active: 2.51 µM
CCC(=O)Oc1ccc2c(c1)O/C(=C\c1ccco1)C2=O,inactive: 90.3%,–
O=C(C[C@H]1C/C=C\CC[C@H](Cc2ccc(F)cc2)C(=O)OC[C@@H]2CCCN2C1=O)N[C@H](CO)Cc1ccccc1,inactive: -22.9%,–
C[C@H]1CN([C@@H](C)CO)C(=O)CCCn2nncc2CO[C@@H]1CN(C)Cc1ccccc1C(F)(F)F,inactive: -6.2%,–
Cc1ccc(C(=O)Nc2cccc(C(F)(F)F)c2)cc1NC(=O)c1csc(-c2ccncc2)n1,inactive: -22%,–
Fc1ccc(-c2nnn3c2nc(NCc2ccccc2)c2ccccc23)cc1,inactive: -1.28%,–
CC(=O)C[C@H](O)CC(=O)[C@@H]1OC(=O)CCCCCCc2ccccc21,inactive: -22.6%,–

Compound,"activity change, negative = inhibition",Potency
C=CC[C@@H](Cc1ccc(F)cc1)C(=O)OC[C@H]1CCCN1C(=O)[C@@H](CC=C)CC(=O)N[C@@H](CO)Cc1ccccc1,inactive: -32%,–
Fc1ccc(Nc2c3c(nc4ccccc24)CCC3)cc1,inactive: -14.5%,–
Oc1ccc2ccccc2c1-c1sc(Nc2ccccc2)n[n+]1-c1ccc(F)cc1,inactive: 265%,–
O=C(O)c1ccc(S(=O)(=O)/N=C2\C=C(Nc3ccccc3F)C(=O)c3ccccc32)cc1,–,active: 2.51 µM
COc1cccc(NC(=O)CSc2nc3ccccc3nc2N2CCOCC2)c1,inactive: -19.8%,–
C=CCC[C@H](Cc1ccc(F)cc1)C(=O)OC[C@@H](Cc1c[nH]c2ccccc12)NC(=O)[C@H](CC=C)CC(=O)NCCO,inactive: -36.5%,–
CC[C@@H]1C/C=C\Cc2ccccc2[C@@H](C(=O)C[C@H](O)CC(C)=O)OC1=O,inactive: -24.8%,–
O=C1N[C@@H](c2ccccc2)COC(=O)[C@H](Cc2ccc(F)cc2)CC/C=C/C[C@@H]1CC(=O)N(CCO)Cc1ccccc1,inactive: -14.4%,–
CC(=O)Nc1ccc(NC2=C/C(=N/S(=O)(=O)c3cccs3)c3ccccc3C2=O)cc1,–,active: 15.8 µM
CN(C)c1ccc(C=c2c3cc(O)ccc3n3c2cc(-c2ccccc2)[n+]3C)cc1,–,active: 28.2 µM
O=C(OCCN1C(=O)c2cccc3c(N4CCOCC4)ccc(c23)C1=O)c1ccc(Cl)cc1,inactive: 477%,–
COc1cc(OC)c(NC2=CC(=O)C(=O)c3ccccc32)cc1Cl,–,active: 17.8 µM
COc1ccccc1NC(=O)N(C)C[C@@H]1OCc2cn(nn2)CCCC(=O)N([C@@H](C)CO)C[C@H]1C,inactive: -18.9%,–
CC(C)(C)OC(=O)C[C@@H]1C/C=C\C[C@H](CC(=O)N(CCO)Cc2ccccc2)C(=O)N[C@H](C(C)(C)C)COC1=O,inactive: 5.11%,–
C[C@@H]1CN([C@H](C)CO)C(=O)CCCn2nncc2CO[C@H]1CN(C)Cc1ccccc1,inactive: -0.0087%,–
CC(=O)n1cc([C@@H]2C=C(C(=O)Nc3ccccc3)O[C@H](OCc3ccc(CO)cc3)C2)c2ccccc21,inactive: -26.1%,–
O=C(N=c1ccn(-c2nc3ccccc3nc2NS(=O)(=O)c2ccccc2)cc1)c1cccs1,inactive: 123%,–
O=C1Nc2ccc(Br)cc2/C1=N/N=C/C1=C(N2CCOCC2)C(=C\c2ccccc2)/CC1,inactive: -13.2%,–
COc1ccc(S(=O)(=O)Nc2cccc(-c3ccc(N4CCCCCC4)nn3)c2)cc1OC,inactive: -16.4%,–
COc1cccc(S(=O)(=O)N(C)C[C@H]2OCc3cnnn3CCCC(=O)N([C@H](C)CO)C[C@H]2C)c1,inactive: -19.4%,–
COC(=O)CCC(=O)OC1(C)C(=O)C2=CN(C3CCCC3)C(c3ccc(OC)cc3)=CC2=C(Br)C1=O (centres undefined),–,active: 25.1 µM
